What is called AC50 is the concentration at which the activity in the assay is half-maximal.

Several values for one entry are separate records, joined by “and”; a condition that tells them apart may be missing. Identical values can stand only once. The list shows a part of the results. These are further read-outs of the screen, such as a control signal, another cell line or another target. No call is given for them. Most of these compounds were active or inconclusive in the main read-out, so they are no random draw. For some of these results: The note in brackets gives the kind of curve behind each potency; many fits are weak.

A short description of assay [1]: qHTS Assay for Lipid Storage Modulators (AID 1519). The conditions noted are these: Drosophila S3 cells, BODIPY lipid droplet/cell ratio, laser cytometry, cells loaded with oleic acid. The procedure, abridged: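 Cells seeded at 5,000 per well were treated with compounds over a concentration series and loaded with oleic acid (400 uM, as added). Lipid droplet fluorescence (488 nm excitation, 500-530 nm channel) was read by laser-scanning cytometry and normalized to 20 uM Triacsin C.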
In general terms: Quantitative high-throughput screening tests each substance at several concentrations.

Assay [2] is described as follows: qHTS Assay for Modulators of Human Peripheral Myelin Protein 22 (PMP22) Expression/Activity (AID 1967). The conditions noted are these: Cell-based PMP22 reporter, dual-color luciferase ratio. The procedure, abridged:
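MSC80 mouse Schwann cells stably carrying Pmp22 promoter–green click beetle luciferase plus EF-alpha–red luciferase control were dosed for 24h at 37 °C. Dual-colour luminescence was filter-overlap corrected; %Activity came from green/red ratio versus untreated cells.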

The nature of assay [3]: qHTS for identification of novel therapeutic agents for treatment of microphthalmiaassociated transcription factor (MiT) renal cell carcinoma (RCC) (AID 1963991). The settings on record: CellTiter-Glo, 48 h, stronger effect = lower value. The procedure, abridged: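 Three TFE3-fusion RCC lines (UOK109, UOK124, UOK145), 500 cells/well in complete medium, were treated with MIPE 4.0 compounds for 48 hours at 37 C. Viability was by CellTiter-Glo luminescence, normalized to DMSO (100%) and empty wells (0%); curves fitted over 11 concentrations.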

[4] abbreviates: measured here: cell count channel max response.
Where [5] appears, read: measured here: cell number channel AC50.
Where [6] appears, read: measured here: lipid (BODIPY) channel AC50.
Setting [7] is: measured here: lipid channel max response.
Where [8] appears, read: measured here: red reporter channel AC50, EF-alpha promoter control reporter in MSC80 mouse Schwann cells.
[9] abbreviates: measured here: green reporter channel AC50, mouse Pmp22 promoter in mouse Schwann cells.
Tags describe the fitted curve by direction and shape.

As for `CNc1ncnc2c1ncn2[C@@H]1O[C@H](CO)[C@H](O)[C@H]1O`, the max response was -58.2% in assay [1] (setting [4]) and -60.6% in assay [1] (setting [7]). Also, the AC50 in assay [1] (setting [5]) was 22.4 µM [falling, partial curve, poor fit]; in assay [1] (setting [6]), 20 µM [falling, partial curve, poor fit]; in assay [2] (setting [8]) it was 84.9 µM [falling, single point].

On to `Nc1ccc(-c2ccc3ccccc3n2)cc1`, for which the max response in assay [1] (setting [4]) is -34.3%; in assay [1] (setting [7]), -33.3%. Further, the AC50 is 20 µM [falling, full curve, poor fit] in assay [1] (setting [5]); 20 µM [falling, full curve, poor fit] in assay [1] (setting [6]); 84.9 µM [falling, single point] in assay [2] (setting [8]).

`Cc1cc(C(C)(C)C)c(O)c(C)c1CC1=NCCN1`: the results for the max response in assay [1] (setting [4]) and in assay [1] (setting [7]) were -4.21% and -4.61%, respectively. In addition, the AC50 in assay [1] (setting [5]) is 2.82 µM [falling, full curve, poor fit]; in assay [1] (setting [6]) it was 2.82 µM [falling, full curve, poor fit]; in assay [2] (setting [9]), 67.5 µM [falling, partial curve, poor fit]; in assay [2] (setting [8]), 75.7 µM [falling, partial curve, poor fit].

On to `O=C(CCc1ccc(O)cc1)c1c(O)cc(O)cc1O`, for which the max response was 90.9% and 74.4% in assay [1] (setting [4]); 106% and 66.7% in assay [1] (setting [7]). In addition, the AC50 in assay [1] (setting [5]) was 39.8 µM [rising, partial curve, poor fit]; in assay [1] (setting [6]) it was 35.5 µM [rising, partial curve, poor fit] and 39.8 µM [rising, single point]; in assay [2] (setting [8]), 84.9 µM [falling, single point]. Moreover, the z-score in assay [3] (TFE3-RCC UOK109 viability, measured here: UOK109 Z-AUC) is -0.655; in assay [3] (TFE3-RCC viability, measured here: UOK124 Z-AUC), 0.403; in assay [3] (TFE3-RCC viability, measured here: UOK145 Z-AUC), 1.1.

For `c1ccc2nc(C3=NCCN3)ccc2c1`, the max response in assay [1] (setting [4]) is 40.2% and -35.7%; in assay [1] (setting [7]) it was 48.1% and -35.3%. Also, the half-maximal activity concentration (AC50) in assay [1] (setting [5]) was 28.2 µM [rising, partial curve, poor fit]; in assay [1] (setting [6]), 28.2 µM [rising, partial curve, poor fit]; in assay [2] (setting [8]), 19 µM [rising, partial curve, poor fit].

Regarding `O=C(c1ccc(F)cc1)C1CCN(CCn2c(=O)[nH]c3ccccc3c2=O)CC1`, the max response in assay [1] (setting [4]) was 5.18% and 71.4%; in assay [1] (setting [7]), 5.3% and 88.1%. For the same compound, the AC50 is 35.5 µM [rising, partial curve, poor fit] in assay [1] (setting [5]); 39.8 nM [rising, full curve, poor fit] and 39.8 µM [rising, partial curve, poor fit] in assay [1] (setting [6]); 84.9 µM [falling, single point] in assay [2] (setting [9]); 84.9 µM [falling, single point] in assay [2] (setting [8]).

As for `O=C(O)[C@@H]1C[C@H](C(=O)O)N1`, the values for the max response in assay [1] (setting [4]) and in assay [1] (setting [7]) were -34.6% and -35.5%, respectively. The AC50 is 0.00224 µM [falling, full curve, poor fit] in assay [1] (setting [5]); 0.00112 µM [falling, full curve, poor fit] in assay [1] (setting [6]); 15.1 µM [rising, single point] in assay [2] (setting [8]).

As for `COc1cc2c(cc1C(F)(F)F)N(C(=O)Nc1cc(F)cc(-c3cccnc3)c1)CC2`, the max response in assay [1] (setting [4]) is 45.8% and -41.5%; in assay [1] (setting [7]), 67.2% and -46.4%. Besides, the concentration at half-maximal activity (AC50) is 1.41 µM [rising, full curve, poor fit] in assay [1] (setting [5]); 1.41 µM [rising, full curve] in assay [1] (setting [6]); 10.7 µM [falling, full curve] in assay [2] (setting [9]); 8.49 µM [falling, full curve] in assay [2] (setting [8]).

As to `CCN(c1nc(N)c(C(=O)N=C(N)N)nc1Cl)C(C)C`, the max response in assay [1] (setting [4]) turned out to be 39%; in assay [1] (setting [7]), 39.6%. In addition, the half-maximal activity concentration (AC50) was 39.8 µM [rising, single point] in assay [1] (setting [5]); 39.8 µM [rising, single point] in assay [1] (setting [6]); 75.7 µM [falling, single point] in assay [2] (setting [9]); 67.5 µM [falling, partial curve, poor fit] in assay [2] (setting [8]).

In the case of `O=C(Nc1cc(C(=O)Nc2ccc(S(=O)(=O)O)cc2S(=O)(=O)O)cc(C(=O)Nc2ccc(S(=O)(=O)O)cc2S(=O)(=O)O)c1)Nc1cc(C(=O)Nc2ccc(S(=O)(=O)O)cc2S(=O)(=O)O)cc(C(=O)Nc2ccc(S(=O)(=O)O)cc2S(=O)(=O)O)c1`, the max response in assay [1] (setting [4]) was -54.1%; in assay [1] (setting [7]) it was -54.4%. Also, the AC50 in assay [1] (setting [5]) is 8.91 µM [falling, full curve]; in assay [1] (setting [6]), 8.91 µM [falling, full curve]; in assay [2] (setting [8]) it was 95.3 µM [falling, single point].

Turning to `Nc1nc2c(nc(Br)n2C2O[C@H]3COP(=O)(O)O[C@@H]3C2O)c(=O)[nH]1` (stereo partly drawn), the max response in assay [1] (setting [4]) is -91.9%; in assay [1] (setting [7]), -93%. Besides, the AC50 in assay [1] (setting [5]) was 39.8 µM [falling, single point]; in assay [1] (setting [6]), 39.8 µM [falling, single point]; in assay [2] (setting [8]), 84.9 µM [falling, single point].

On to `Cc1cc(NC(=O)Nc2ccc3c(ccn3C)c2)sn1`, for which the max response is 55.8% and 42.2% in assay [1] (setting [4]); 76.1% and 44.5% in assay [1] (setting [7]). Further, the AC50 in assay [1] (setting [5]) is 562 nM [rising, full curve, poor fit] and 2.24 µM [falling, full curve, poor fit]; in assay [1] (setting [6]), 501 nM [rising, full curve, poor fit] and 2.24 µM [falling, full curve, poor fit]; in assay [2] (setting [9]), 95.3 µM [falling, single point]; in assay [2] (setting [8]) it was 1.9 µM [rising, full curve, poor fit].

On to `CC1=C(CC(=O)O)c2cc(F)ccc2/C1=C\c1ccc(S(C)=O)cc1` (stereo not drawn), for which the max response in assay [1] (setting [4]) is 96.8% and 17.3% and -19.7%; in assay [1] (setting [7]) it was 126% and 34% and -21.9%. Further, the half-maximal activity concentration (AC50) in assay [1] (setting [5]) was 31.6 µM [rising, partial curve, poor fit] and 15.8 µM [falling, single point]; in assay [1] (setting [6]), 31.6 µM [rising, partial curve, poor fit] and 11.2 nM [rising, full curve, poor fit] and 15.8 µM [falling, single point]; in assay [2] (setting [8]) it was 84.9 µM [falling, single point].

The values are drawn from PubChem BioAssay (NCATS).
